B1: VH001 VHH-hFc (Fc fusion)
chain: QLQLVESGGGLVQPGGSLRLSCAASGFTLDVYAIGWFRQAPGKEREGVSYITSGDGIFYADSVKGRFTISRDNAKNTVYLQMNSLKPEDTAVYFCATLKRTTAGGWPIPGRIGGQGTQVTVSS[human IgG1 Fc with changes left out]
notes: VHH recombined with human IgG1 Fc (VHH-hFc); the junction is not described
B2: S001-NB150-56 VHH-hFc (Fc fusion)
chain: QVQLVESGGGLVRPGGSLRVSCAASGVDISTYTMAWYRQAPGEQRESVAAISTTGRSIYIDAVQGRFTMSRDNAKNTVYLQMNNLKPEDTAVYYCNSADDLKIGTQYFKGLGWGQGTQVTVSS[human IgG1 Fc with changes left out]
notes: as for B1
B3: S001-NB150-28(cyno+) VHH-hFc (Fc fusion)
chain: QVQLVESGGGLVQPGGSLRLSCAASGSISTYTMAWYRQAPGEQRESVAAISSGGRTDYIDSVKGRFTISRDNAKNMVYLQMNSLKPEDTAVYYCNSADGLKIGTYYFKGLGWGQGTQVTVSA[human IgG1 Fc with changes left out]
notes: as for B1
B4: S001-NB152-101 VHH-hFc (Fc fusion)
chain: QVQLVESGGGLVQAGASLRLSCLGSGRSFGLRAMGWFRQAPGKELEFVAAIGKAGDTTYYTDSVKGRFTISRDNVKNAVYLQMNSLKPEDTAVYVCATAARWEPPTITPGSYRGPGTQVTVSS[human IgG1 Fc with changes left out]
notes: as for B1

Each binder was assayed against T1, monkey GPC3-His protein (Acro, Cat. No. GP3-05225) (monkey, UniProt A5A6P7 25-559) (assay: ELISA; antibody 100 nM).
T1 construct: Bought protein; the soluble protein surely lacks signal peptide and C-terminal anchor region; also called monkey GPC3 protein; not shown: His tag
T1 sequence (A5A6P7 other isoform, or with tags, fused parts or gaps limits assumed): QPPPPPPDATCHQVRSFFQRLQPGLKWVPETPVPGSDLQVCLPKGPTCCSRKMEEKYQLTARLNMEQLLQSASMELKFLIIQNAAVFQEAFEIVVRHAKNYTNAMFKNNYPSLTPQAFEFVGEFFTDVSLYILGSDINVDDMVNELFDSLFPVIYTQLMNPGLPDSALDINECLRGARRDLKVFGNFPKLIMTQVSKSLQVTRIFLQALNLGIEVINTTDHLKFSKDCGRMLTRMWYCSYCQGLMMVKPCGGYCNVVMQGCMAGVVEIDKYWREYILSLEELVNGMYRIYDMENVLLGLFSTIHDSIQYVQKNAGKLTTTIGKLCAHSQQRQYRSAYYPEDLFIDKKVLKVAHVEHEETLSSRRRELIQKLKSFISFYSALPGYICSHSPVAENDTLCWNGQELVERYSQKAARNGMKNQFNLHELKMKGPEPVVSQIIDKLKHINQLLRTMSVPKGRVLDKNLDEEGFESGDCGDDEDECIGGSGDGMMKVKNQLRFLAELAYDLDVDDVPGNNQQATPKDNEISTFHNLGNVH
Method: (§1) After incubation for 2 h at 37° C., the plate was washed 3 times with PBS.
For B1, the OD450 was 2.35.
For B2, the OD450 was 0.508.
For B3, the OD450 was 2.12.
With B4 the OD450 was 2.75.

These binders were tested against T2, mouse GPC3-His protein (Sino Biological, Cat. No. 50989-M08B) (mouse, UniProt Q8CFZ4 25-558) (assay: ELISA; antibody 100 nM).
T2 construct: Bought protein; also called mouse GPC3 protein; not shown: His tag
T2 sequence (Q8CFZ4 25-558 limits assumed): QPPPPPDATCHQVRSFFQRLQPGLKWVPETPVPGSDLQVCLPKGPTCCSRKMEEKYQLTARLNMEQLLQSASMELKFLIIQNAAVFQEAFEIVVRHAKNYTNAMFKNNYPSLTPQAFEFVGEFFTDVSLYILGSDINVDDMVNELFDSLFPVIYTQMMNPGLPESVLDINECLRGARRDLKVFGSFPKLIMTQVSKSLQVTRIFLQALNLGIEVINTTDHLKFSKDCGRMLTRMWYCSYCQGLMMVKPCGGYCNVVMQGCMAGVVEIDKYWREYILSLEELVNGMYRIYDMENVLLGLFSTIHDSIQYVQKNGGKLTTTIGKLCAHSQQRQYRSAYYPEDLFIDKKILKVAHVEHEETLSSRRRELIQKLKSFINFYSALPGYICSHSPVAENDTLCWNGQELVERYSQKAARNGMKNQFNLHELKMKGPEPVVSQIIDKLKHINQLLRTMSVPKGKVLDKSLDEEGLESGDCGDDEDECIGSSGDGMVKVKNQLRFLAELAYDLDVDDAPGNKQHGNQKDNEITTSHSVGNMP
Method: as §1
B1 was tested, and the OD450 was 2.18.
In the case of B2, the OD450 is reported as 2.6.
With B3 the OD450 was 2.32.
Binder B4 has an OD450 of 0.288.

These binders were tested against T3, human GPC3 (Gln25-His559)-His protein (Acro, Cat. No. GP3-H52H4) (human, UniProt P51654 25-559) (assay: ELISA; antibody 100 nM).
T3 construct: Bought protein; also called human GPC3-His protein; human GPC3-his protein; not shown: His tag
Method: as §1
B1 showed an OD450 of 2.35.
B2 showed an OD450 of 2.11.
With B3 the OD450 was 2.45.
In the case of B4, the OD450 is reported as 2.5.

The binders below were run against T1, monkey GPC3-His protein (Acro, Cat. No. …) (assay: ELISA; antibody 0.0001 nM).
Method: as §1
In the case of B1, the OD450 is reported as 0.048.
For B2, the OD450 was 0.043.
Work on B3 yielded an OD450 of 0.043.
B4 gave an OD450 of 0.051.

Each binder was assayed against T2, mouse GPC3-His protein (Sino …) (assay: ELISA; antibody 0.0001 nM).
Method: as §1
Work on B1 yielded an OD450 of 0.052.
With B2 the OD450 was 0.053.
In the case of B3, the OD450 is reported as 0.067.
Binder B4 has an OD450 of 0.109.

What follows are binders tested against T3, human GPC3 (Gln25-His559)-His protein … (assay: ELISA; antibody 0.0001 nM).
Method: as §1
Binder B1 has an OD450 of 0.051.
Work on B2 yielded an OD450 of 0.149.
B3 showed an OD450 of 0.05.
Work on B4 yielded an OD450 of 0.05.

The binders below were run against T1, monkey GPC3-His protein (Acro, Cat. No. …) (assay: SPR (Biacore), antibody captured on Protein A chip).
Method: (§2) The sample and running buffer was HBS-EP+ (10 mM HEPES, 150 mM NaCl, 3 mM EDTA, 0.05% surfactant P20) (GE Healthcare; BR-1006-69). The flow cell was set at 25° C. The sample block was set at 16° C. Both were pretreated with the running buffer. […] The association and dissociation processes of the antibody with the antigen protein were recorded, and finally, the chip was regenerated using Glycine pH 1.5 (GE Healthcare; BR-1003-54). […] The dissociation phase was monitored for up to 600 s and triggered by switching from the sample solution to the running buffer. The surface was regenerated by washing with 10 mM glycine solution (pH 1.5) at a flow rate of 30 μL/min for 30 s. The difference in bulk refractive index was corrected by subtracting the responses obtained from the goat anti-human Fc surface. Blank injections were also subtracted (double reference). To calculate the apparent KD and other kinetic parameters, the Langmuir 1:1 model was used.
B1 gave a Kd of 3.06 nM, a koff of 0.00108 s⁻¹ and a kon of 352000 M⁻¹ s⁻¹.
B2 gave a Kd of 4.64 nM, a koff of 0.00109 s⁻¹ and a kon of 236000 M⁻¹ s⁻¹.
Work on B3 yielded a Kd of 5.12 nM, a koff of 0.00157 s⁻¹ and a kon of 306000 M⁻¹ s⁻¹.
B4 showed a Kd of 2.66 nM, a koff of 0.00048 s⁻¹ and a kon of 181000 M⁻¹ s⁻¹.

What follows are binders tested against T3, human GPC3 (Gln25-His559)-His protein … (assay: SPR (Biacore), antibody captured on Protein A chip).
Method: as §2
B1 was tested, and the Kd was 1.66 nM, the koff was 0.000443 s⁻¹ and the kon was 267000 M⁻¹ s⁻¹.
With B2 the Kd was 7.25 nM, the koff was 0.000757 s⁻¹ and the kon was 104000 M⁻¹ s⁻¹.
Binder B3 has a Kd of 19.3 nM, a koff of 0.00574 s⁻¹ and a kon of 297000 M⁻¹ s⁻¹.
Work on B4 yielded a Kd of 11.1 nM, a koff of 0.00167 s⁻¹ and a kon of 151000 M⁻¹ s⁻¹.

The binders below were run against T4, human GPC3 on cells (HepG2 endogenous; CHO-K1 recombinant clones CHOK1-hGPC3.1C3, 2B5, 3E9) (human, UniProt P51654 25-554) (assay: FACS on HepG2 cells).
T4 construct: Full-length human GPC3 (NCBI NM_004484.3) transfected into CHO-K1; HepG2 expresses GPC3 endogenously; also called CHO-K1-human GPC3 cells; HepG2 cells
B1 was tested, and the EC50 was 2.39 nM and the “Max MFI” value was 3510.
B2 was tested, and the EC50 was 3.19 nM and the “Max MFI” value was 699.
For B3, the EC50 was 0.53 nM and the “Max MFI” value was 2680.
For B4, the EC50 was 0.35 nM and the “Max MFI” value was 3530.

Each binder was assayed against T4, human GPC3 on cells (HepG2 endogenous; …) (assay: FACS on CHO-K1-human GPC3 cells).
For B1, the EC50 was 0.97 nM and the “Max MFI” value was 4900.
In the case of B2, the EC50 is reported as 3.74 nM and the “Max MFI” value is reported as 1330.
With B3 the EC50 was 0.4 nM and the “Max MFI” value was 4390.
B4 was tested, and the EC50 was 0.34 nM and the “Max MFI” value was 5440.

These binders were tested against T1, monkey GPC3-His protein (Acro, Cat. No. …) (assay: ELISA; antibody 10 nM).
Method: as §1
B1 gave an OD450 of 2.24.
B2 gave an OD450 of 0.406.
With B3 the OD450 was 1.87.
B4 gave an OD450 of 2.14.

The binders below were run against T2, mouse GPC3-His protein (Sino …) (assay: ELISA; antibody 10 nM).
Method: as §1
In the case of B1, the OD450 is reported as 1.12.
B2 gave an OD450 of 2.24.
Binder B3 has an OD450 of 2.32.
B4 gave an OD450 of 0.073.

These binders were tested against T3, human GPC3 (Gln25-His559)-His protein … (assay: ELISA; antibody 10 nM).
Method: as §1
With B1 the OD450 was 2.08.
With B2 the OD450 was 1.89.
B3 was tested, and the OD450 was 2.02.
Work on B4 yielded an OD450 of 2.21.

The binders below were run against T1, monkey GPC3-His protein (Acro, Cat. No. …) (assay: ELISA; antibody 0.01 nM).
Method: as §1
With B1 the OD450 was 0.351.
With B2 the OD450 was 0.044.
Work on B3 yielded an OD450 of 0.056.
With B4 the OD450 was 0.4.

The binders below were run against T2, mouse GPC3-His protein (Sino …) (assay: ELISA; antibody 0.01 nM).
Method: as §1
B1 showed an OD450 of 0.05.
With B2 the OD450 was 0.29.
In the case of B3, the OD450 is reported as 0.554.
Binder B4 has an OD450 of 0.23.

These binders were tested against T3, human GPC3 (Gln25-His559)-His protein … (assay: ELISA; antibody 0.01 nM).
Method: as §1
With B1 the OD450 was 0.495.
With B2 the OD450 was 0.21.
With B3 the OD450 was 0.396.
B4 showed an OD450 of 0.406.

What follows are binders tested against T1, monkey GPC3-His protein (Acro, Cat. No. …) (assay: ELISA; antibody 0.1 nM).
Method: as §1
B1 gave an OD450 of 1.47.
Binder B2 has an OD450 of 0.049.
Binder B3 has an OD450 of 0.195.
B4 gave an OD450 of 1.71.

These binders were tested against T3, human GPC3 (Gln25-His559)-His protein … (assay: ELISA; antibody 0.1 nM).
Method: as §1
In the case of B1, the OD450 is reported as 1.47.
For B2, the OD450 was 0.521.
B3 gave an OD450 of 1.48.
Work on B4 yielded an OD450 of 1.6.

Each binder was assayed against T1, monkey GPC3-His protein (Acro, Cat. No. …) (assay: ELISA; antibody 0.001 nM).
Method: as §1
B1 showed an OD450 of 0.086.
B2 gave an OD450 of 0.045.
Binder B3 has an OD450 of 0.052.
B4 gave an OD450 of 0.092.

Each binder was assayed against T2, mouse GPC3-His protein (Sino …) (assay: ELISA; antibody 0.001 nM).
Method: as §1
B1 was tested, and the OD450 was 0.051.
Binder B2 has an OD450 of 0.08.
With B3 the OD450 was 0.114.
B4 showed an OD450 of 0.222.

The binders below were run against T3, human GPC3 (Gln25-His559)-His protein … (assay: ELISA; antibody 0.001 nM).
Method: as §1
Work on B1 yielded an OD450 of 0.241.
Work on B2 yielded an OD450 of 0.207.
Work on B3 yielded an OD450 of 0.122.
For B4, the OD450 was 0.096.

From patent US20240052055A1 (SIMCERE ZAIMING PHARMACEUTICAL, published 2024)
